Reference: the supplement of paper PMC8728848
This is one part of the list.

Legend:
Test in all cases: glycan array binding signal (z-score within array); higher = stronger binding
Conditions in all cases: glycan notation: IUPAC condensed, linker removed
Fuc(a1-2)Gal = molecular target: Fuc(a1-2)Gal
How it was run: (§1)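 The binding signal is a Z-score computed within each array and averaged over linkers. Arrays of the same protein sequence at different concentrations or buffers were also averaged together. Data originate from 3228 arrays in the Consortium for Functional Glycomics database, kept only where the protein sequence was available.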

Fuc(a1-2)Gal(b1-3)GalNAc = molecular target: Fuc(a1-2)Gal(b1-3)GalNAc
How it was run: as §1

[1] = molecular target: Fuc(a1-2)Gal(b1-3)GalNAc(a1-3)[Fuc(a1-2)]Gal(b1-4)Glc
How it was run: as §1

[2] = molecular target: Fuc(a1-2)Gal(b1-3)GalNAc(a1-3)[Fuc(a1-2)]Gal(b1-4)GlcNAc
How it was run: as §1

[3] = molecular target: Fuc(a1-2)Gal(b1-3)GalNAc(b1-3)Gal
How it was run: as §1

[4] = molecular target: Fuc(a1-2)Gal(b1-3)GalNAc(b1-3)Gal(a1-4)Gal(b1-4)Glc
How it was run: as §1

[5] = molecular target: Fuc(a1-2)Gal(b1-3)GalNAc(b1-4)[Neu5Ac(a2-3)]Gal(b1-4)Glc
How it was run: as §1

Fuc(a1-2)Gal(b1-3)GlcNAc = molecular target: Fuc(a1-2)Gal(b1-3)GlcNAc
How it was run: as §1

[6] = molecular target: Fuc(a1-2)Gal(b1-3)GlcNAc(b1-2)Man(a1-3)[Fuc(a1-2)Gal(b1-3)GlcNAc(b1-2)Man(a1-6)]Man(b1-4)GlcNAc(b1-4)GlcNAc
How it was run: as §1

[7] = molecular target: Fuc(a1-2)Gal(b1-3)GlcNAc(b1-2)Man(a1-3)[Fuc(a1-2)Gal(b1-3)GlcNAc(b1-2)Man(a1-6)]Man(b1-4)GlcNAc(b1-4)[Fuc(a1-6)]GlcNAc
How it was run: as §1

[8] = molecular target: Fuc(a1-2)Gal(b1-3)GlcNAc(b1-3)Gal(b1-4)Glc
How it was run: as §1

[9] = molecular target: Fuc(a1-2)Gal(b1-3)GlcNAc(b1-3)GalNAc
How it was run: as §1

[10] = molecular target: Fuc(a1-2)Gal(b1-3)GlcNAc(b1-3)[Fuc(a1-2)Gal(b1-3)GlcNAc(b1-6)]GalNAc
How it was run: as §1

[11] = molecular target: Fuc(a1-2)Gal(b1-3)GlcNAc(b1-3)[Gal(b1-4)GlcNAc(b1-6)]Gal(b1-4)Glc
How it was run: as §1

[12] = molecular target: Fuc(a1-2)Gal(b1-3)GlcNAc(b1-3)[Gal(b1-4)[Fuc(a1-3)]GlcNAc(b1-6)]Gal(b1-4)Glc
How it was run: as §1

[13] = molecular target: Fuc(a1-2)Gal(b1-3)GlcNAc(b1-3)[Neu5Ac(a2-6)Gal(b1-4)GlcNAc(b1-6)]Gal(b1-4)Glc
How it was run: as §1

[14] = molecular target: Fuc(a1-2)Gal(b1-3)GlcNAc6S
How it was run: as §1

[15] = molecular target: Fuc(a1-2)Gal(b1-3)[Fuc(a1-4)]GlcNAc
How it was run: as §1

[16] = molecular target: Fuc(a1-2)Gal(b1-3)[Fuc(a1-4)]GlcNAc(b1-2)Man(a1-3)[Fuc(a1-2)Gal(b1-3)[Fuc(a1-4)]GlcNAc(b1-2)Man(a1-3)]Man(b1-4)GlcNAc(b1-4)GlcNAc
How it was run: as §1

[17] = molecular target: Fuc(a1-2)Gal(b1-3)[Fuc(a1-4)]GlcNAc(b1-2)Man(a1-3)[Fuc(a1-2)Gal(b1-3)[Fuc(a1-4)]GlcNAc(b1-2)Man(a1-6)]Man(b1-4)GlcNAc(b1-4)GlcNAc
How it was run: as §1

[18] = molecular target: Fuc(a1-2)Gal(b1-3)[Fuc(a1-4)]GlcNAc(b1-2)Man(a1-3)[Fuc(a1-2)Gal(b1-3)[Fuc(a1-4)]GlcNAc(b1-2)Man(a1-6)]Man(b1-4)GlcNAc(b1-4)[Fuc(a1-6)]GlcNAc(b1-4)[Fuc(a1-6)]GlcNAc
How it was run: as §1

[19] = molecular target: Fuc(a1-2)Gal(b1-3)[Fuc(a1-4)]GlcNAc(b1-3)[Fuc(a1-3)[Gal(b1-4)]GlcNAc(b1-6)]Gal(b1-4)Glc
How it was run: as §1

[20] = molecular target: Fuc(a1-2)Gal(b1-3)[Fuc(a1-4)]GlcNAc(b1-3)[Gal(b1-4)GlcNAc(b1-6)]Gal(b1-4)Glc
How it was run: as §1

[21] = molecular target: Fuc(a1-2)Gal(b1-4)Fuc(a1-3)]GlcNAc(b1-2)Man(a1-3)[Fuc(a1-2)Gal(b1-4)[Fuc(a1-3)]GlcNAc(b1-2)Man(a1-6)]Man(b1-4)GlcNAc(b1-4)GlcNAc
How it was run: as §1

Fuc(a1-2)Gal(b1-4)Glc = molecular target: Fuc(a1-2)Gal(b1-4)Glc
How it was run: as §1

Fuc(a1-2)Gal(b1-4)Glc6S = molecular target: Fuc(a1-2)Gal(b1-4)Glc6S
How it was run: as §1

Fuc(a1-2)Gal(b1-4)GlcNAc = molecular target: Fuc(a1-2)Gal(b1-4)GlcNAc
How it was run: as §1

[22] = molecular target: Fuc(a1-2)Gal(b1-4)GlcNAc(b1-2)Man
How it was run: as §1

[23] = molecular target: Fuc(a1-2)Gal(b1-4)GlcNAc(b1-2)Man(a1-3)[Fuc(a1-2)Gal(b1-4)GlcNAc(b1-2)Man(a1-6)]Man(b1-4)GlcNAc(b1-4)GlcNAc
How it was run: as §1

[24] = molecular target: Fuc(a1-2)Gal(b1-4)GlcNAc(b1-2)Man(a1-3)[Fuc(a1-2)Gal(b1-4)GlcNAc(b1-2)Man(a1-6)]Man(b1-4)GlcNAc(b1-4)[Fuc(a1-6)]GlcNAc
How it was run: as §1

B1: GNA (Galanthus nivalis), P30617 (protein)
chain: MAKASLLILAAIFLGVITPSCLSDNILYSGETLSTGEFLNYGSFVFIMQEDCNLVLYDVDKPIWATNTGGLSRSCFLSMQTDGNLVVYNPSNKPIWASNTGGQNGNYVCILQKDRNVVIYGTDRWATGTHTGLVGIPASPPSEKYPTAGKIKLVTAK
glycan array binding signal (z-score) (Fuc(a1-2)Gal): -0.113 | glycan array binding signal (z-score) (Fuc(a1-2)Gal(b1-3)GalNAc): -0.207 | glycan array binding signal (z-score) [1]: -0.135 | glycan array binding signal (z-score) [2]: -0.155 | glycan array binding signal (z-score) [3]: -0.183 | glycan array binding signal (z-score) [4]: -0.199 | glycan array binding signal (z-score) [5]: -0.228 | glycan array binding signal (z-score) (Fuc(a1-2)Gal(b1-3)GlcNAc): -0.167 | glycan array binding signal (z-score) [6]: 0.118 | glycan array binding signal (z-score) [7]: 0.254 | glycan array binding signal (z-score) [8]: -0.178 | glycan array binding signal (z-score) [9]: -0.172 | glycan array binding signal (z-score) [10]: -0.148 | glycan array binding signal (z-score) [11]: -0.168 | glycan array binding signal (z-score) [12]: -0.082 | glycan array binding signal (z-score) [13]: -0.17 | glycan array binding signal (z-score) [14]: -0.155 | glycan array binding signal (z-score) [15]: -0.166 | glycan array binding signal (z-score) [16]: -0.097 | glycan array binding signal (z-score) [17]: 0.191 | glycan array binding signal (z-score) [18]: -0.009 | glycan array binding signal (z-score) [19]: -0.172 | glycan array binding signal (z-score) [20]: -0.144 | glycan array binding signal (z-score) [21]: -0.129 | glycan array binding signal (z-score) (Fuc(a1-2)Gal(b1-4)Glc): -0.153 | glycan array binding signal (z-score) (Fuc(a1-2)Gal(b1-4)Glc6S): -0.048 | glycan array binding signal (z-score) (Fuc(a1-2)Gal(b1-4)GlcNAc): -0.169 | glycan array binding signal (z-score) [22]: -0.156 | glycan array binding signal (z-score) [23]: -0.066 | glycan array binding signal (z-score) [24]: 0.132
